Assay results from patent publication US20240024490.

Target: BRD4-HA (cytoplasmic version), O60885

B1: HA-tagged Abl (protein)
chain: MLEICLKLVGCKSKKGLSSSSSCYLEEALQRPVASDFEPQGLSEAARWNSKENLLAGPSE[about 60 residues not given here]LEKHSWYHGPVSRNAAEYLLSSGINGSFLVRESESSPGQRSISLRYEGRVYHYRINTASDGKLYVSSESRFNTLAELVHHHSTVADGLITTLHYPAPKRNKPTVYGVSPNYDKWEMERTDITMKHKLGGGQYGEVYEGVWKKYSLTVAVKTLKEDTMEVEEFLKEAAVMKEIKHPNLVQLLGVCTREPPFYIITEFMTYGNLLDYLRECNRQEVNAVVLLYMATQISSAMEYLEKKNFIHRDLAARNCLVGENHLVKVADFGLSRLMTGDTYTAHAGAKFPIKWTAPESLAYNKFSIKSDVWAFGVLLWEIATYGMSPYPGIDLSQVYELLEKDYRMERPEGCPEKVYELMRACWQWNPSDRPSFAEIHQAFETMFQESSISDEVEKELGKQGVRGAVSTLLQAPELPTKTRTSRRAAEHRDTTDVPEMPHSKGQGESDPLDHEPAVSPLLPRKERGPPEGGLNEDERLLPKDKKTNLFSALIKKKKKTAPTPPKRSSSFREMDGQPERRGAGEEEGRDISNGALAFTPLDTADPAKSPKPSNGAGVPNGALRESGGSGFRSPHLWKKSSTLTSSRLATGEEEGGGSSSKRFLRSCSASCVPHGAKDTEWRSVTLPRDLQSTGRQFDSSTFGGHKSEKPALPRKRAGENRSDQVTRGTVTPPPRLVKKNEEAADEVFKDIMESSPGSSPPNLTPKPLRRQVTVAPASGLPHKEEAGKGSALGTPAAAEPVTPTSKAGSGAPGGTSKGPAEESRVRRHKHSSESPGRDKGKLSRLKPAPPPPPAASAGKAGGKPSQSPSQEAAGEAVLGAKTKATSLVDAVNSDAAKPSQPGEGLKKPVLPATPKPQSAKPSGTPISPAPVPSTLPSASSALAGDQPSSTAFIPLISTRVSLRKTRQPPERIASGAITKGVVLDSTEALCLAISRNSEQMASHSAVLEAGKNLYTFCVSYVDSIQQMRNKFAFREAINKLENNLRELQICPATAGSGPAATQDFSKLLSSVKEISDIVQR
With B1 the “p-BRD4 (pan pTyr antibody) on BRD4-HA (Cytoplasmic), after IP” value was “p-BRD4 bands in the lanes VS812, AD107 (Meta) and AD100 (Para); weak band with AD95 (Ortho); faint with VS875; none with DMSO; BRD4-HA (after IP), Abl-HA and Actin (before IP) about equal in all six lanes; VS812 is drawn on D00021 as the Abl binder alone, without a BRD4-binding part”.
